This note sets out measurements from patent US20210340207A1 (Merck Sharp & Dohme, published 2021).

For test [1], the target named is T1, mouse IL-2Rαβγc (on CTLL2-STAT5 reporter cells) (mouse, UniProt P01590 22-268; P16297 27-539; P34902 23-369).
T1 sequence (looked up) 1: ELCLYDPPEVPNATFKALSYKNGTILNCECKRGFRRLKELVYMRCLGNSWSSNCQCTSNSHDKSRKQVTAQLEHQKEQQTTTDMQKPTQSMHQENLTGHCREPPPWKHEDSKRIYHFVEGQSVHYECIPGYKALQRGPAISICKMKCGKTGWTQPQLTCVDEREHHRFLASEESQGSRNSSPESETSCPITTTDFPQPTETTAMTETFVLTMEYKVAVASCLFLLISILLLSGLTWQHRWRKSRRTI
T1 sequence (looked up) 2: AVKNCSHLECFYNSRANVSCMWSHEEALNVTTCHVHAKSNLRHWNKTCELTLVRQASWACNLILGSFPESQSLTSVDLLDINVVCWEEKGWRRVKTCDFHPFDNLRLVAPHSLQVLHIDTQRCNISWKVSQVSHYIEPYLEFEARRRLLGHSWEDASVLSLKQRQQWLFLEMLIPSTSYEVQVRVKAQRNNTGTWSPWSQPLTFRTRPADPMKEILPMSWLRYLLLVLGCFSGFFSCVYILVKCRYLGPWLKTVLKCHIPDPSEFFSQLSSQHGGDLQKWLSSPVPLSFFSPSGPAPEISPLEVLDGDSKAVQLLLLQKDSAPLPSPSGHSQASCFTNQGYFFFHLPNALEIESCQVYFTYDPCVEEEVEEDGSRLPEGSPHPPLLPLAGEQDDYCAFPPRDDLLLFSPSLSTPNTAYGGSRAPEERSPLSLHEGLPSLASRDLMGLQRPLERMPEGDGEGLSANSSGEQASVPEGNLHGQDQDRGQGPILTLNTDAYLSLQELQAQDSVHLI
T1 sequence (looked up) 3: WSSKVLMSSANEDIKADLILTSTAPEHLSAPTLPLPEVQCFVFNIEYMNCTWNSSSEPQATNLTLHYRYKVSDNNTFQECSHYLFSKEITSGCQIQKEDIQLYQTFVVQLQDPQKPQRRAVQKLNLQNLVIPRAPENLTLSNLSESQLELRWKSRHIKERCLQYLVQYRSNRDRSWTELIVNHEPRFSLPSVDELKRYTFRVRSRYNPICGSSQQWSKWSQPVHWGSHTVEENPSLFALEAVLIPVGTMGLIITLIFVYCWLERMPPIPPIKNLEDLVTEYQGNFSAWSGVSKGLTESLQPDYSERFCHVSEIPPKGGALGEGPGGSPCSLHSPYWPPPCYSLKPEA
In words: cell-based or functional assay.

The target of test [2] is T2, human IL-2Rβγc (on DERL-7 cells, U2OS IL2RB/IL2RG cells, CD25 knockout Kit225-STAT5 cells, primary CD8+ CTLs) (human, UniProt P14784 27-551; P31785 23-369).
T2 sequence (looked up) 1: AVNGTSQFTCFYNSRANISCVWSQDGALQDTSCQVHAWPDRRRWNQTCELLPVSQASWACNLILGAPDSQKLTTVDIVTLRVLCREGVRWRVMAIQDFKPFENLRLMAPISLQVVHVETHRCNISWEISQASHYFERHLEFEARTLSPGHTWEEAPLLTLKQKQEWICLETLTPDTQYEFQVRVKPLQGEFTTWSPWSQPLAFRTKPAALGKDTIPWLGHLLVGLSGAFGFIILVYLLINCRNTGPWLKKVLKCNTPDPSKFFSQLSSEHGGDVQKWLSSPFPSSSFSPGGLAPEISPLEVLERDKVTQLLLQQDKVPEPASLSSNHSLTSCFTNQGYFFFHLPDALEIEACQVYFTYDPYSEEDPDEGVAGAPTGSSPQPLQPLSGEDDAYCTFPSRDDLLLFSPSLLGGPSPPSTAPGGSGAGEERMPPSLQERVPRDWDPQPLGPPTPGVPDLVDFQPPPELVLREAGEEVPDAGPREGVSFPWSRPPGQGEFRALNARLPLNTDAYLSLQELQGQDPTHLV
T2 sequence (looked up) 2: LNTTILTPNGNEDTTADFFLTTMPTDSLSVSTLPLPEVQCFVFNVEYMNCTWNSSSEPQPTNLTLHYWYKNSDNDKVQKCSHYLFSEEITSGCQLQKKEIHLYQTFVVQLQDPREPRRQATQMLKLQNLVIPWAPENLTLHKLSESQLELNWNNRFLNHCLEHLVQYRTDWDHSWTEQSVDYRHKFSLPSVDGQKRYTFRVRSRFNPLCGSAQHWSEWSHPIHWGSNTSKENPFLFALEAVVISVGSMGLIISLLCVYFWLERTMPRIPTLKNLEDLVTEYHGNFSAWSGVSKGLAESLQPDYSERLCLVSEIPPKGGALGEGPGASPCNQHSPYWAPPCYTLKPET
In words: cell-based or functional assay.

The target of the next test is T3, Biotin-IL-2Rβ-His (UniProt P14784 27-239, limits assumed, biotin-labeled (site not stated)).
T3 construct: also called biotin-labeled IL-2Rβ; not shown: His tag
T3 sequence (looked up): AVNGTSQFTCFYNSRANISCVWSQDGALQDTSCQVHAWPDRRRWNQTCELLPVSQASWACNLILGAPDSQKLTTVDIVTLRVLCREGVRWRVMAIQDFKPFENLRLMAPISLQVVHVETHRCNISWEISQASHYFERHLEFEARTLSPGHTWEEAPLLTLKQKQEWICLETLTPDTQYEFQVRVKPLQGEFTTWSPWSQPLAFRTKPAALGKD
In words: SPR (Biacore T200).

A further test has as its target T4, Biotin-IL-2Rα-His (UniProt P01589 22-213, limits assumed, biotin-labeled (site not stated)).
T4 construct: also called biotin-labeled IL-2Rα; not shown: His tag
T4 sequence (looked up): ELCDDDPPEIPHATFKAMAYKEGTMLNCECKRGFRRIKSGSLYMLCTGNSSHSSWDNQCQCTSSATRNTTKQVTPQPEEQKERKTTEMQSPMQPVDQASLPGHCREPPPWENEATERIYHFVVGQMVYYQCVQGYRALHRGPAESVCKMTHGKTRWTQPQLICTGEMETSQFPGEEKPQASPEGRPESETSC
Description: SPR (Biacore T200).

B1: Ald-6HIS_E60T (ligand)
chain: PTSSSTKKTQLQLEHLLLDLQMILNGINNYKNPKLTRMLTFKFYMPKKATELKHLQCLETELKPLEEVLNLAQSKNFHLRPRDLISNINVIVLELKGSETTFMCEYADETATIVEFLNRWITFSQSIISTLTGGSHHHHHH
In the case of B1, the “CTLL2-STAT5 EC50” value in test [1] was 0.324 nM. Besides, the “U2OS-IL2Rbg EC50” value in test [2] was found to be 0.899 nM. Also, in the test with Biotin-IL-2Rβ-His, binding was put at a Kd of 800 nM and the “fold reduction over wt” value stood at 2 fold. Further, in the test with Biotin-IL-2Rα-His, the Kd was 500 nM and the “fold reduction over wt” value turned out to be 50 fold.

B2: Ald-6HIS_T36D (ligand)
chain: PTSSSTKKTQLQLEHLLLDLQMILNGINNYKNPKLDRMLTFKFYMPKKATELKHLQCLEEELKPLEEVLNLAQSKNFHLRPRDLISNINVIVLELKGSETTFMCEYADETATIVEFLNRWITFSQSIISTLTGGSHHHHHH
For the molecule B2, in test [1], the “CTLL2-STAT5 EC50” value turned out to be 0.006 nM. Besides, the “U2OS-IL2Rbg EC50” value in test [2] came to 0.468 nM. Moreover, in the test with Biotin-IL-2Rβ-His, binding was put at a Kd of 800 nM and the “fold reduction over wt” value stood at 2 fold. For the same molecule, in the test with Biotin-IL-2Rα-His, binding was put at a Kd of 50 nM and the “fold reduction over wt” value came to 5 fold.

B3: Ald-6HIS_Y44V (ligand)
chain: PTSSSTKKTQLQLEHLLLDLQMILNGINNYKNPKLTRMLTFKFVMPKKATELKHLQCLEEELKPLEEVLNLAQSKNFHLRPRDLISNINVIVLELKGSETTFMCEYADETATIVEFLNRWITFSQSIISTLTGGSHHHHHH
B3: the “CTLL2-STAT5 EC50” value in test [1] was 0.679 nM. Moreover, the “U2OS-IL2Rbg EC50” value in test [2] was 4.19 nM. Moreover, in the test with Biotin-IL-2Rα-His, binding was put at a Kd of 600 nM and the “fold reduction over wt” value amounted to 60 fold.

B4: Ald-6HIS_K42G (ligand)
chain: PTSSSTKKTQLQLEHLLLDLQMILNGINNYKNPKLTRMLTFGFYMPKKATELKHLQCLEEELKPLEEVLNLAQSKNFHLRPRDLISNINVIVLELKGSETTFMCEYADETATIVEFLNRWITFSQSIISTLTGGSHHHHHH
For the molecule B4, the “CTLL2-STAT5 EC50” value in test [1] worked out at 0.033 nM. Also, the “U2OS-IL2Rbg EC50” value in test [2] came to 1.63 nM. In the test with Biotin-IL-2Rβ-His, the affinity, expressed as Kd, was 600 nM and the “fold reduction over wt” value amounted to 2 fold. In the test with Biotin-IL-2Rα-His, the Kd is 100 nM and the “fold reduction over wt” value came out at 10 fold.

B5: Ald-6HIS_T40D (ligand)
chain: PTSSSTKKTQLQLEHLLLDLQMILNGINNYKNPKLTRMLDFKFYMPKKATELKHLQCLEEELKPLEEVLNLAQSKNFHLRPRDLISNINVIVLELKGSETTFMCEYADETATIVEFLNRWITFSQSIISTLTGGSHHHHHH
For the molecule B5, the “CTLL2-STAT5 EC50” value in test [1] was 0.216 nM. In test [2], the “U2OS-IL2Rbg EC50” value came to 0.614 nM. In addition, in the test with Biotin-IL-2Rβ-His, the Kd worked out at 600 nM and the “fold reduction over wt” value turned out to be 2 fold. Further, in the test with Biotin-IL-2Rα-His, the Kd worked out at 500 nM and the “fold reduction over wt” value is 50 fold.

B6: Ald-6HIS_P64A (ligand)
chain: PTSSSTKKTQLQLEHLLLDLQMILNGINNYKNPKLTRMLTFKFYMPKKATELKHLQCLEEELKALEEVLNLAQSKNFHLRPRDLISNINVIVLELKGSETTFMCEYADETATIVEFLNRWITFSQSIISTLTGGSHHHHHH
On to B6, for which, in test [1], the “CTLL2-STAT5 EC50” value came out at 0.005 nM. Moreover, the “U2OS-IL2Rbg EC50” value in test [2] is 0.608 nM. Further, the results for the equilibrium dissociation constant (Kd) with Biotin-IL-2Rβ-His and with Biotin-IL-2Rα-His were 500 nM and 10 nM, respectively. Also, the “fold reduction over wt” value with Biotin-IL-2Rβ-His and in the test with Biotin-IL-2Rα-His was 1 fold each time.

B7: Ald-6HIS_L71I (ligand)
chain: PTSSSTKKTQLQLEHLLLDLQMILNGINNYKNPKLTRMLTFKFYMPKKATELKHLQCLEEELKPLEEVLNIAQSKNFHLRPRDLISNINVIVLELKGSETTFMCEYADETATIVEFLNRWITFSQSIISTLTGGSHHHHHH
As for B7, the “CTLL2-STAT5 EC50” value in test [1] is 0.006 nM. In addition, the “U2OS-IL2Rbg EC50” value in test [2] was determined as 0.68 nM. In addition, the Kd in the test with Biotin-IL-2Rβ-His amounted to 400 nM; with Biotin-IL-2Rα-His, 10 nM. Besides, the “fold reduction over wt” value with Biotin-IL-2Rβ-His and with Biotin-IL-2Rα-His was 1 fold throughout.

B8: Ald-6HIS_K63G (ligand)
chain: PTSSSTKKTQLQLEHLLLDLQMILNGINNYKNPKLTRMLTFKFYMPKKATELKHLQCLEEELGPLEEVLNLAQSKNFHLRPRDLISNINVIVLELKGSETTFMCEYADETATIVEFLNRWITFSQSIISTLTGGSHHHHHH
Regarding B8, the “CTLL2-STAT5 EC50” value in test [1] was 0.005 nM. Besides, the “U2OS-IL2Rbg EC50” value in test [2] came out at 0.485 nM. Further, in the test with Biotin-IL-2Rβ-His, the affinity, expressed as Kd, was 500 nM and the “fold reduction over wt” value worked out at 1 fold. In the test with Biotin-IL-2Rα-His, binding was characterised by a dissociation constant (Kd) of 40 nM and the “fold reduction over wt” value was determined as 4 fold.

B9: Ald-6HIS_K34D (ligand)
chain: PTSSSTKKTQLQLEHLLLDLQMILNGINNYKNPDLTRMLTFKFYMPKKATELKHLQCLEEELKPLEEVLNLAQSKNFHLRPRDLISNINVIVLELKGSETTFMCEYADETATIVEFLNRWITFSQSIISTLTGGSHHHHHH
Turning to B9, in test [1], the “CTLL2-STAT5 EC50” value worked out at 0.012 nM. In test [2], the “U2OS-IL2Rbg EC50” value turned out to be 0.865 nM. Also, in the test with Biotin-IL-2Rβ-His, binding was put at a Kd of 1000 nM and the “fold reduction over wt” value amounted to 3 fold. In the test with Biotin-IL-2Rα-His, binding was put at a Kd of 300 nM and the “fold reduction over wt” value came out at 30 fold.

B10: Ald-6HIS_E67G (ligand)
chain: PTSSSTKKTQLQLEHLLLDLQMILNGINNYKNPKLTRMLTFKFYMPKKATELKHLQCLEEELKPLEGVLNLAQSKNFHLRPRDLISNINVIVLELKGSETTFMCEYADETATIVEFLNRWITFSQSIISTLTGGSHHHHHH
With B10, the “CTLL2-STAT5 EC50” value in test [1] worked out at 0.007 nM. In test [2], the “U2OS-IL2Rbg EC50” value worked out at 0.879 nM. In the test with Biotin-IL-2Rβ-His, binding was put at a Kd of 600 nM and the “fold reduction over wt” value is 2 fold. In the test with Biotin-IL-2Rα-His, the Kd was 30 nM and the “fold reduction over wt” value turned out to be 3 fold.

B11: Ald-6HIS_F41L (ligand)
chain: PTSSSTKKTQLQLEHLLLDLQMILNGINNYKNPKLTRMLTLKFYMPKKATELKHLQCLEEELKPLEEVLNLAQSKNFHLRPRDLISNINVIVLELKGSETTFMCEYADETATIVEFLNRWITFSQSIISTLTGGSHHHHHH
Regarding B11, in test [1], the “CTLL2-STAT5 EC50” value came out at 0.087 nM. Moreover, the “U2OS-IL2Rbg EC50” value in test [2] stood at 1.56 nM. For the same molecule, in the test with Biotin-IL-2Rβ-His, the affinity, expressed as Kd, was 2000 nM and the “fold reduction over wt” value is 5 fold. In the test with Biotin-IL-2Rα-His, the Kd was determined as 100 nM and the “fold reduction over wt” value amounted to 10 fold.

B12: Ald-6HIS_R37G (ligand)
chain: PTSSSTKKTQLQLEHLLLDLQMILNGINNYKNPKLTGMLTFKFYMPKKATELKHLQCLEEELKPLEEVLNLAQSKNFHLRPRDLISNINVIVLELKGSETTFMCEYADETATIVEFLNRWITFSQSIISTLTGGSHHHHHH
For the molecule B12, in test [1], the “CTLL2-STAT5 EC50” value was 0.018 nM. For the same molecule, in test [2], the “U2OS-IL2Rbg EC50” value stood at 0.753 nM. Further, in the test with Biotin-IL-2Rβ-His, the Kd amounted to 600 nM and the “fold reduction over wt” value stood at 2 fold. In the test with Biotin-IL-2Rα-His, binding was characterised by a dissociation constant (Kd) of 500 nM and the “fold reduction over wt” value was 50 fold.

B13: Ald-6HIS_E61S (ligand)
chain: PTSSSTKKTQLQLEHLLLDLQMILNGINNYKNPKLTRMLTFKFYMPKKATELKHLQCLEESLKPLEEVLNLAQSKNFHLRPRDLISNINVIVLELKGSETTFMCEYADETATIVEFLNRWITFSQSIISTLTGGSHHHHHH
As to B13, the “CTLL2-STAT5 EC50” value in test [1] came to 5.11 nM. In test [2], the “U2OS-IL2Rbg EC50” value came out at 0.623 nM. In addition, in the test with Biotin-IL-2Rβ-His, the Kd was 1000 nM and the “fold reduction over wt” value worked out at 3 fold. Further, in the test with Biotin-IL-2Rα-His, the dissociation constant Kd was determined as 900 nM and the “fold reduction over wt” value is 90 fold.
